According to the supplement of paper PMC11417369:
Some of the results follow.

What follows are sequences tested on PF3D7_0420300 AP2 domain 1 (GST-tagged) (assay: gcPBM binding intensity (ln(normalized median fluorescence intensity)); higher = stronger DNA binding).
Outline: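 For binding intensity, the highest Masliner-normalised natural-log median intensity across replicate spots of either probe orientation was taken. Protein bound to the array was stained with Alexa488 anti-GST antibody and scanned at 488 nm. The protein, GST-tagged P. falciparum DNA-binding domains from E. coli at about 25 μg on average, had been applied for 1 h to an Agilent 4 × 180k array of primer-extended double-stranded 36-bp intergenic genomic probes and negative controls.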

| Sequence | gcPBM binding intensity (ln) |
| --- | --- |
| ATATATATATATATATATATTTATATGTGAAAACCC [CACACA_negctrl_site845] | 9.28 |
| CGCATAAAGACAAGAACACACATATATATTGTAGTA [CACACA_site5938] | 9.38 |
| CAACAACAAAAAAAAAAATAATAATAATAAAAAATA [TGCATGCA_negctrl_site271] | 9.1 |
| AGAAAAAAATAATGTACACACACATATATGTTTATA [CACACA_site7946] | 9.64 |
| ATATACAAAGGATTAACACACATATTATTATATATA [CACACA_site1880] | 9.57 |
| TATTTTTTAAAAAAATGTCATAAAATTTCTTTTTTC [XGTACX_negctrl_site271] | 8.78 |
| AATACAATATAAAGGTGTACATATATATATATATAT [XGTACX_site68] | 9.47 |
| ATGTAGATAGATAGGGTGCTAAAAATAAGATTTATA [GTGCAC_site9602] | 9.2 |
| AAAAAAAAAAAAAAAACACACACAACACCCATACCT [CACACA_site9208] | 9.73 |
| TACAAAATATTTTACACACACATATAAATACCTATA [CACACA_site7272] | 9.83 |
| TATATATATATATGAGTGCATATGTGTAATATAAAA | 9.38 |
| TTATGTTCTTAATGCACACTTATAAGTATCTTATAA [CACACA_site1394] | 9.25 |
| TATATAATTATTTGATGTACACTACAATGTATTTGT [XGTACX_site7991] | 9.21 |
| TATAAAATATATATCTGTACGTATTTTATTTTTTAT [XGTACX_site6257] | 9.35 |
| TATAAGCAAAGACACACACACATATAAATATAAATA [CACACA_site7740] | 10.1 |
| TTTTTTTTTTTTTTGTCACACACCTTCATAAGAAAA [CACACA_site1166] | 9.09 |
| CACACCATATAATATATATATATGTATATATTTATA [CACACA_negctrl_site397] | 9.22 |
| ACACAAAAATAAAAATGTACAAATTAAAAAAAATGA [XGTACX_site2083] | 9.58 |
| TAAAAGGAACAAAATTGTACTTAAAAGACAAAGTTA [XGTACX_site7661] | 9.13 |
| ATATATATTAATAGTTGTACTATTATAATATTACAA [XGTACX_site1213] | 8.96 |
| ATCCTGAACAGAATATGTATAAACAGAAGGAAACAA [CACACA_negctrl_site1805] | 9.45 |
| TTTGTTCTATGGAGTTTAAAATGTAATATATATTAA [GTGCAC_negctrl_site151] | 9.03 |

| Sequence | gcPBM binding intensity (ln) |
| --- | --- |
| CTTTGTAGTTGGTCCACACACATATATGGAAGAATA [CACACA_site1280] | 9.39 |
| ATATATATATATATATATATATATATATTTATATAT [GTGCAC_negctrl_site180] | 8.92 |
| TAATAATAGAGACACACACACATTTTTAATAATACA [CACACA_site6691] | 9.83 |
| TTAACATTTTAAAAATGTACATTTATATACATAAAT [XGTACX_site922] | 8.9 |
| AGAAAAATTCTAAGAACATGCAAAAAAATAAAAAAA [TGCATGCA_site293] | 9.35 |
| TCTAATGTAATGCATACACACAACTATCCATCAAAA [CACACA_site534] | 9.43 |
| AAAAAATAAATAAATATACACACCATATATATATTT [CACACA_site2854] | 9.6 |
| TTTTTTTTTTTAAATAGTACACATATATATATATAT [XGTACX_site6983] | 8.93 |
| TATACCTATAGACACACACACATAAATAGATATATA [CACACA_site6748] | 10 |
| TACACGCATAGACACACACACACACGCATATAAATA [CACACA_site6446] | 10.3 |
| AAAAAAAAAAAAAAAAGTACAAAAAAAAAAAAAAAA [XGTACX_site4549] | 8.72 |
| TTTTATTTTTCTAGTAGTACTTCTTTTTATAATATA [XGTACX_site1181] | 9.28 |
| AGTTTACACCTTGTGAGTACATACATACATATATAT [XGTACX_site8793] | 9.3 |
| ACTTTTTTTTTTTTTTTAGATTACATAAATATAAAT [CACACA_negctrl_site139] | 9.2 |
| TTATAAATTTAAAAAGTGCATAATAATAACAAAAAG | 9.45 |
| TATGTATATTTAAATGCATGTGATTATTTTTGACTT [TGCATGCA_site568] | 9.09 |
| AAAAAAAAAAAAAAAACACACATATAGATTATTGTA [CACACA_site7797] | 9.34 |
| TTTTAATTTATCGACACACGCATGAATAGAAATTAG [CACACA_site3361] | 9.11 |
| TATTTTTATTTTCCTTCACACATTTTTTATATTTTT [CACACA_site5830] | 9.77 |
| TTATAATTTAATAAATGTACATAAATAATATACATA [XGTACX_site7271] | 8.92 |
| AACACAATAAAAATTAAAAATGTTAAGTAAATATAA [GTGCAC_negctrl_site60] | 9.41 |
| AGACAATATCTTATTTGTACATATGTATTCCTCATA [XGTACX_site5757] | 9.33 |

| Sequence | gcPBM binding intensity (ln) |
| --- | --- |
| AATTATTCATAAAATGCATGTACATGGTTTAATATT [TGCATGCA_site87] | 9.3 |
| TCGTAAACTTTATGCACACACATATACATATTTCAT [CACACA_site739] | 9.87 |
| ATACATGTTTTATGTGCACACAAAGTTGTTATGAGG [CACACA_site4032] | 9.77 |
| ATAATACACAAGCACACACACACACGGATATTTATA [CACACA_site6714] | 10.3 |
| ATAATTATATTTTATTCACACATCGTTATATAGTAA [CACACA_site4743] | 9.31 |
| ATTATGGATACATAAACACACATATATATAAAAAAA [CACACA_site4303] | 9.66 |
| ACATGATAAATAGTCACACATAAATATAATATATAT [CACACA_site5207] | 9.52 |
| CTAATATATGTATGCACACACAATATATACATATTT [CACACA_site3360] | 9.59 |
| GTTATACACATATATACACACATATGTAAATATATA [CACACA_site9080] | 9.49 |
| ATATTACAAATATAATGTACAAAATATAAATATGCA [XGTACX_site8106] | 9.42 |
| GTCCTTACTAATTAATTTTAGGCCATATAGTTTGTC [XGTACX_negctrl_site199] | 9.38 |
| AAATGCGTATATAACGCATGTATAAGAACATTTTTT [TGCATGCA_site225] | 9.12 |
| TTATAATCTATACATATATATGTATGTATGTCTCAA [CACACA_negctrl_site1702] | 9.24 |
| ACATCATTTTTATGTACACACACATATACGTTGAAT [CACACA_site5095] | 9.98 |
| GAAGTATTATTAAAGCTGCACTTTTCTAAAATAAAC [GTGCAC_site9429] | 9.01 |
| CATTAATTTAATAAATGTACATAAAATATATATTAT [XGTACX_site8085] | 9.16 |
| TAAAATTTACAACACTGTACTTGAATTTATCTTTAA [XGTACX_site241] | 9.16 |
| GCAGTATGCGATCAGTGTACGAGTTATTTTATAAAA [XGTACX_site4764] | 8.92 |
| ATGTTATATTTTTTTATACACACTGGGATATATAAA [CACACA_site6244] | 9.41 |
| TTCATTGTGTTAACGGTGCATATATTTTTTCACCGT [GTGCAC_site9464] | 9.27 |
| TAAAAATATAAAAAGTGTACAATATATAAATTAATA [XGTACX_site1606] | 9.43 |
| ATATTAAAAAAATATGCATGCAAATATTATTTTGTA [TGCATGCA_site191] | 8.99 |

| Sequence | gcPBM binding intensity (ln) |
| --- | --- |
| AATCAAATTTTCAAGTCGCACCAAACAAAAAAATGA [CACACA_negctrl_site1397] | 9.23 |
| TATTTAATTAATATAATATTAAACGGAAAAGATAAA [TGCATGCA_negctrl_site148] | 9.27 |
| TTTTTCTTTTTTTTTTTAATAATATATAACAAATTT [CACACA_negctrl_site1724] | 9.01 |
| TGCCATATATATATTAAATACATAATAATGAGCCTA [GTGCAC_negctrl_site10] | 9.12 |
| AGTCATAAATTTATTTGTACATATAATATATATATA [XGTACX_site8489] | 9.2 |
| AAAATATATAATTTTTAACACACAAAAAAAAAAAAA [CACACA_site9192] | 9.22 |
| ATAAACAAAAAAAAAAAATATATCAATATATATATA [CACACA_negctrl_site299] | 9.12 |
| GAATTTCAACAAAGTAGTACATTTTATAGTAATTGG [XGTACX_site2319] | 9.07 |
| ATAAATATGTTCTGCACACAAATAAGTGTTTGAAGT [CACACA_site3892] | 9.39 |
| TAATGGAATAAAAATTGTACATATTTTTTTTTTTTT [XGTACX_site7669] | 9.04 |
| AACTCACGAGGACACACACACATATATATATATATA [CACACA_site4711] | 9.87 |
| TATAATATATCTGTAACACACAAAAGTTATATACTT [CACACA_site5578] | 9.29 |
| TTTTTTTCTCTCTCTACACACAAGGTTTAATTTAAA [CACACA_site1690] | 9.55 |
| ACATACATACATACATACATACATACATACATACAT [XGTACX_negctrl_site315] | 9.02 |
| TCATAGGGGTAGAAGGTGCAATAAAAAAGAAGAAAA | 9.19 |
| AATGTGTAGGTAAGATAATTTTTGTTTTTTTATTTG [CACACA_negctrl_site424] | 9.46 |
| ATATTTATAATATAGAGTACTTACTAAGTTATGGGT [XGTACX_site5405] | 9.23 |
| TTAAACTTGAAACACACACACACACCCATATAAAAA [CACACA_site758] | 10.1 |
| TTTTTATATATATGTATAAATATTTTTTCTATTTAT [XGTACX_negctrl_site606] | 9.1 |
| AAATTTTCTTAAGGTTGTACTTTTTGAAAATAATCT [XGTACX_site4894] | 8.98 |
| TGTAGTCTGGAGAAACGTACATAGTATCTGGTAGCT [XGTACX_site2538] | 9.18 |
| AAAAAAAAAAAAAAAAGTACAAAAATATATATGCAT [XGTACX_site8392] | 9.34 |
